# Assay results: publication PMC4336329 (PLoS ONE, 2015)
# Among all 310,000 compounds or so, about 14,000 (4.5%) showed an effect of 50% or more. The effect is printed as a negative number. Some of the results follow.
# Target: human ether-à-go-go-related gene (hERG) potassium channel (human, UniProt Q12809)
# Experiment: primary screen, population patch clamp on CHO cells stably expressing hERG
# 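Also: peak tail current of the secondary pulse compared with the same well before compound.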
# Sequence of human ether-à-go-go-related gene (hERG) potassium channel (Q12809 whole entry, looked up): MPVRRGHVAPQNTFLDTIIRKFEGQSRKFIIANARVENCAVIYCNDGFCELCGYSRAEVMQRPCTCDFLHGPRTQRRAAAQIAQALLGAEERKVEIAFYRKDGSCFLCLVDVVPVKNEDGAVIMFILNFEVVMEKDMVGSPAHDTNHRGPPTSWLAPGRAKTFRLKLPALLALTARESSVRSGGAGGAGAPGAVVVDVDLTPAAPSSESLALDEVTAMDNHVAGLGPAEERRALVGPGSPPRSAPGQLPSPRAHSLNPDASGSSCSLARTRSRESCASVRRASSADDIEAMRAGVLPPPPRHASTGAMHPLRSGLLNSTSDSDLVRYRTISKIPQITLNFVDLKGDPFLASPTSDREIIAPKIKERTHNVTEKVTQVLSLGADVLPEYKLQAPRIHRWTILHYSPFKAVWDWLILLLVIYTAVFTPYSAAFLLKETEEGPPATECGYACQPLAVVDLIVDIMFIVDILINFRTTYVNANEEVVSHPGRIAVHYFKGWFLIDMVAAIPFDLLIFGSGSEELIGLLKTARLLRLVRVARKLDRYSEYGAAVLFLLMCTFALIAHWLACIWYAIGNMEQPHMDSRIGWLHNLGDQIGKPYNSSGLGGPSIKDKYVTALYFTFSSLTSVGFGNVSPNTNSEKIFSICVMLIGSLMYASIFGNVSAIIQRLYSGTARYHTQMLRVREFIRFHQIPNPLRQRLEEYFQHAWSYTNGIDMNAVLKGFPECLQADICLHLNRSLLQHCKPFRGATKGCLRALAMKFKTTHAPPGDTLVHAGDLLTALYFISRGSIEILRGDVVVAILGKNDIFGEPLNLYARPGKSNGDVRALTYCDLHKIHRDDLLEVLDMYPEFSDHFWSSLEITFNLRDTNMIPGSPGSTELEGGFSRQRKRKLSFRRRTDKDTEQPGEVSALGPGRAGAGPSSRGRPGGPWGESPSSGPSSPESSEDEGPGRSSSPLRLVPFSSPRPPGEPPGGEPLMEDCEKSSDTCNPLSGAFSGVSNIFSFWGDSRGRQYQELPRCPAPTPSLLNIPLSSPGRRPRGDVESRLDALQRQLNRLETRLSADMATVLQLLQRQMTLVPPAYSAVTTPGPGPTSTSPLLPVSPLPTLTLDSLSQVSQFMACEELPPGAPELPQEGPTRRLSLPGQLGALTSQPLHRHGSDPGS
row,SMILES,"hERG current change (%, negative = inhibition) at 10uM [%]"
1,COc1ccc(NC(=O)c2cc(F)c(F)cc2Cl)cc1Cl,-5.58
2,O=C(Nc1ccc2c(c1)CCCN2C(=O)c1cccs1)c1ccccc1,-10.1
3,FC(F)(F)c1ccccc1CN1CCC(Cc2ccccc2)CC1,12
4,CCOC(=O)c1oc2nc(C(C)C)c3c(c2c1N)CCC3,14.5
5,COc1cc(NC(=S)N2CCN(c3ccccn3)CC2)cc(OC)c1,11.1
6,O=C(O)c1cc(N2C(=O)C3CCCCC3C2=O)ccc1NCc1cccnc1 (stereo not drawn),22.4
7,CNC(=S)NNC(=O)c1oc2nc(-c3ccccc3)cc(-c3ccco3)c2c1N,4.29
8,CCN(CC)C(=O)CC(c1cc(OC)c(OC)c(OC)c1)c1c(O)cc(OC)cc1OC (stereo not drawn),3.55
9,CC(=O)c1cccc(CN2CCN(CCC(C)C)C(CCO)C2)c1 (stereo not drawn),-29
10,Cc1ccc(NC(=O)CSc2nnc(N)s2)cc1S(=O)(=O)N1CCOCC1,8.24
11,O=C(c1cn(-c2ccccc2)nc1-c1cccs1)N1CCOCC1,-11.5
12,COc1cc(NC(=O)CNC(=O)Cn2ccc3ccccc3c2=O)cc(OC)c1OC,18.4
13,CCOc1ccc(/C=C2\SC(=S)N(CCC(=O)Nc3cccc(C(=O)O)c3)C2=O)cc1,3.57
14,CCN(CC(=O)NC(C)(C)C)C(=O)COc1c(Cl)cc(Cl)c2ccc(C)nc12,-27.6
15,CC(C)CNc1ncnc2c1cnn2Cc1ccc(Cl)cc1,-7.32
16,N/C(Cc1ccc(Cl)cc1)=N\OC(=O)Cc1ccc([N+](=O)[O-])cc1,-4.32
17,Cc1cc2ccccn2c1C(=O)Nc1ccccc1,-2.23
18,CCOc1ccccc1NC(=O)C1CCCN(S(=O)(=O)c2ccccc2)C1 (stereo not drawn),-19.2
19,COc1ccccc1C(=O)NCCC(=O)Nc1ccc(S(=O)(=O)N2CCCC(C)C2)cc1 (stereo not drawn),-1.23
20,CC(C)c1ccc(NC(=O)CCNC(=O)Cn2ccc3ccccc3c2=O)cc1,-13.3
21,O=C(c1ccccc1)c1nc2ccccc2[nH]c1=O,-9.7
22,COc1ccc([C@H]2/C=C\CN(C(=O)c3ccc(C)cc3)[C@@H](C)C(=O)N2Cc2ccc(F)cc2)cc1,-48.4

row,SMILES,"hERG current change (%, negative = inhibition) at 10uM [%]"
1,CC(NC(=O)COC(=O)c1cc([N+](=O)[O-])ccc1N1CCOCC1)c1ccc(F)cc1 (stereo not drawn),-56.8
2,Cc1cc(O)cc(O)c1C(=O)Cc1ccccc1,-11.7
3,OCC[n+]1c2ccccc2nc2ccc(N3CCOCC3)cc21.[O-][Cl+3]([O-])([O-])[O-],3.86
4,O=C(CN1CCN(C(=O)c2ccco2)CC1)Nc1ccc2c(c1)OCCO2,-6.63
5,Cc1noc2ncnc(N3CCCCC3)c12,9.01
6,O=C(NCCC(=O)N1CCN(S(=O)(=O)c2ccccc2Cl)CC1)Nc1ccccc1,-11.8
7,CCOC(=O)c1sc2nc(CSc3ccccc3Cl)[nH]c(=O)c2c1C,10.7
8,CCn1cc(CNC(=O)c2ccc3nc(Cc4ccc(OC)cc4)oc3c2)cn1,6.8
9,Nc1c(C(=O)N2CCOCC2)sc2nc(N3CCOCC3)c3c(c12)CCCC3,6.33
10,CC1(C)C2CCC(C2)C1(C)NC(=O)CNCC1CCCCC1.Cl (stereo not drawn),10.7
11,Cc1ccc(C(=O)NCCC(=O)Nc2ccccc2C)cc1,19.5
12,Cc1cccc(OCc2nc3ccccc3n2C)c1.Cl,4.26
13,O=C(OCc1nnc(-c2ccccc2)o1)c1cn(-c2ccccc2)nc1-c1ccccc1,-8.59
14,CC[n+]1c(/C=C2/C=C(C)CC(C)(C)C2)sc2ccc(OC)cc21.Cc1ccc(S(=O)(=O)[O-])cc1,-68.7
15,CCOc1cc(Br)c(C=O)cc1OCC,22.1
16,CCn1ncc(Br)c1C(=O)Nc1ccc(C(=O)OC(C)C)cc1,-16.4
17,Cc1cc(=O)[nH]c(-n2nc(C)c(Oc3ccccc3O)c2C)n1,-1.93
18,COc1ccc(NC2=CC(=O)CC(c3ccccc3)C2)cc1 (stereo not drawn),0.869
19,Cc1ccccc1-n1c(-c2ccc(=O)[nH]n2)n[nH]c1=S,24.5
20,CCOC(=O)NN1C(=O)c2ccccc2NC12CCCC2,-6.13
21,COc1ccc(N2CCN(C(=O)Cc3nn(C)c(=O)c4ccccc34)CC2)cc1,-23.8
22,O=C(O)C(Cc1c[nH]c2ccccc12)N1C(=O)c2ccccc2C1=O (stereo not drawn),-2.61

row,SMILES,"hERG current change (%, negative = inhibition) at 10uM [%]"
1,COc1cc(CN2CCN(C(C)C)C(CCO)C2)ccc1OCc1ccccc1 (stereo not drawn),-55.2
2,Cc1ccsc1/C=N/NC(=O)C(N)=O,10.6
3,Cc1ccc(OC[C@H](O)[C@H](C)NC(C)C)c2c1CCC2.Cl,-10.6
4,O=S1(=O)CCO[C@H]2Cc3ccccc3[C@H]2N1Cc1ccccc1,-9.5
5,CS(=O)(=O)N1N=C(c2cccs2)CC1c1ccc(F)cc1 (stereo not drawn),1.38
6,Cc1ccccc1C1C(C#N)=C2N=C(N)c3ccccc3N2C2=C1C(=O)CCC2 (stereo not drawn),-4.41
7,Cn1cnc2cc(OC(=O)c3ccccc3)ccc21,-10.8
8,CC(=O)Nc1ccc(S(=O)(=O)NCc2cccnc2)cc1,10.6
9,Cc1nc2c3ccccc3nc(NNC(=O)CCC(=O)NCCN3CCN(c4ccccc4F)CC3)n2n1,2.88
10,CCN(CC(O)Cn1c2ccccc2c2ccccc21)S(=O)(=O)c1ccc(F)cc1 (stereo not drawn),12.2
11,Cc1cc([N+](=O)[O-])ccc1NC(=O)Nc1ccccc1F,10
12,Cc1ccccc1N1OC2C(=O)N(c3ccc(F)cc3)C(=O)C2C1c1ccccn1 (stereo not drawn),6.95
13,Cc1ccc(CSCC(=O)N(C)CC(=O)Nc2ccc(C)cc2)cc1,-2.48
14,COc1ccccc1OCCn1c(SCC(=O)O)nc2ccccc21,-4.47
15,CC(OC(=O)C1=COCCO1)C(=O)NC1CCCCC1C (stereo not drawn),12.7
16,Cc1ccnc(Sc2ncccc2[N+](=O)[O-])n1,16
17,CCn1c(COc2ccccc2Cl)nnc1SCC(=O)Nc1ncccc1C,-2.78
18,CCOC(=O)c1ccc2c(c1)n(CCO)c(C)[n+]2CC.[I-],10.6
19,COc1ccc(Cl)cc1NC(=O)CSc1nnc(Cc2ccc(C)cc2)c(=O)[nH]1,-5.22
20,Cc1ccc(Nc2nc(N)nc(CN3CCN(Cc4ccc5c(c4)OCO5)CC3)n2)cc1,-73.3
21,CC(C)(C)OC(=O)N/N=C/c1cn(-c2ccccc2)nc1-c1cccnc1,-49.3
22,NC1=NN(c2cccc(C(=O)O)c2)C(=O)C1,34.2

row,SMILES,"hERG current change (%, negative = inhibition) at 10uM [%]"
1,CCOC(=O)c1cnc2c(OC)cccc2c1N1CCN(c2ccccc2OC)CC1,-45.4
2,CC(=O)N(C(C)=O)c1nc(-c2ccccc2)cn1/N=C/c1ccccc1,14.2
3,CCC1=NN(C(=O)c2ccc(Cl)cc2)C(O)(c2ccccc2)C1 (stereo not drawn),-4.82
4,COc1cccc(NC(=O)c2cccc(C(=O)Nc3cccc(OC)c3)n2)c1,25
5,N#Cc1c(NC(=O)CSc2ncn(-c3ccccc3)n2)sc2c1CCCC2,5.33
6,Cc1ccc(CSc2nnc([C@@H]3CCCN3)o2)cc1.Cl,-10.2
7,COc1ccc(C)cc1NC(=O)c1ccc(NS(=O)(=O)c2cccs2)cc1,23.4
8,O=C(NC(=S)N1CCN(C/C=C/c2ccccc2)CC1)c1ccc(F)cc1,-43.7
9,Cc1cc(C)c2nc(N3CCCC(C(=O)N4CCC(C(N)=O)CC4)C3)sc2c1 (stereo not drawn),-19.3
10,COc1ccc(Cn2c(C)cc3c(c2=O)C(c2cccs2)C(C#N)=C(N)O3)cc1OC (stereo not drawn),1.42
11,CCOC(=O)N1CCC(n2c(=S)[nH]c3cc(OCC)c(OCC)cc3c2=O)CC1,0.579
12,CN1C(=O)[C@H]2[C@@H](C3CC3)N3C(=O)CN(CCO)C(=O)[C@@]3(Cc3ccccc3)[C@H]2C1=O,6.03
13,Cc1[nH]c2ccccc2c1/C=N/NC(=O)CNC(=O)c1cccs1,11.4
14,O=C(CN1C(=O)NC2(CCCC2)C1=O)Nc1ccc(Cl)cc1C(F)(F)F,6.83
15,Cc1ccc(C(=O)CSc2nc3ccccc3c(=O)n2N)o1,-1.95
16,CCOC(=O)C1CCN(C(=O)Nc2ccc3oc(C)nc3c2)CC1,7.35
17,CCOC(=O)CCCCC(=O)c1[nH]c(=O)[nH]c1CSc1nc(C)cc(=O)[nH]1,15.1
18,CCOc1ccc(C(=O)CCN2CCOCC2)cc1.Cl,6.35
19,CC(=O)N/C(=N\c1nc(C)cc(C)n1)Nc1ccc(Cl)cc1Cl,17.7
20,CCN(CC(=O)NC1CCS(=O)(=O)C1)S(=O)(=O)c1cc([N+](=O)[O-])ccc1C (stereo not drawn),-4.81
21,COc1ccc(NC(=O)c2nc3ccccc3s2)cc1,1.34
